# This is one part of the list.
# Tests used:
# Test in all cases: glycan array binding signal (z-score within array); higher = stronger binding
# Details in all cases: glycan notation: IUPAC condensed, linker removed
# Neu5Ac(a2-8)Neu5Ac = target: Neu5Ac(a2-8)Neu5Ac
# In short: (§1)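 The Consortium for Functional Glycomics database supplied 3228 glycan arrays, of which those lacking an available protein sequence were dropped. The binding signal, a within-array Z-score, was averaged across arrays of the same protein sequence and across linkers. Negative scores can be read as non-binding.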
# [1] = target: Neu5Ac(a2-8)Neu5Ac(a2-3)Gal(b1-3)GalNAc(b1-4)[Neu5Ac(a2-3)]Gal(b1-4)Glc
# In short: as §1
# [2] = target: Neu5Ac(a2-8)Neu5Ac(a2-3)Gal(b1-3)GalNAc(b1-4)[Neu5Ac(a2-8)Neu5Ac(a2-3)]Gal(b1-4)Glc
# In short: as §1
# [3] = target: Neu5Ac(a2-8)Neu5Ac(a2-3)Gal(b1-4)Glc
# In short: as §1
# [4] = target: Neu5Ac(a2-8)Neu5Ac(a2-3)Gal(b1-4)GlcNAc
# In short: as §1
# [5] = target: Neu5Ac(a2-8)Neu5Ac(a2-3)[Gal(b1-3)GalNAc(b1-4)]Gal(b1-4)Glc
# In short: as §1
# [6] = target: Neu5Ac(a2-8)Neu5Ac(a2-3)[GalNAc(b1-4)]Gal(b1-4)Glc
# In short: as §1
# [7] = target: Neu5Ac(a2-8)Neu5Ac(a2-8)Neu5Ac
# In short: as §1
# [8] = target: Neu5Ac(a2-8)Neu5Ac(a2-8)Neu5Ac(a2-3)Gal(b1-4)Glc
# In short: as §1
# [9] = target: Neu5Ac(a2-8)Neu5Ac(a2-8)Neu5Ac(a2-3)[Gal(b1-3)GalNAc(b1-4)]Gal(b1-4)Glc
# In short: as §1
# [10] = target: Neu5Ac(a2-8)Neu5Ac(a2-8)Neu5Ac(a2-3)[GalNAc(b1-4)]Gal(b1-4)Glc
# In short: as §1
# [11] = target: Neu5Ac(a2-8)Neu5Ac(a2-8)Neu5Ac(a2-8)Neu5Ac(a2-3)[GalNAc(b1-4)]Gal(b1-4)Glc
# In short: as §1
# [12] = target: Neu5Ac(a2-8)Neu5Gc(a2-3)Gal(b1-4)GlcNAc
# In short: as §1
# [13] = target: Neu5Ac(b2-6)Gal(b1-4)GlcNAc
# In short: as §1
# Neu5Ac(b2-6)GalNAc = target: Neu5Ac(b2-6)GalNAc
# In short: as §1
# [14] = target: Neu5Ac9Ac(a2-3)Gal(b1-3)GlcNAc
# In short: as §1
# [15] = target: Neu5Ac9Ac(a2-3)Gal(b1-4)GlcNAc
# In short: as §1
# [16] = target: Neu5Ac9Ac(a2-6)Gal(b1-4)GlcNAc
# In short: as §1
# [17] = target: Neu5Gc(a2-3)Gal(b1-3)GlcNAc
# In short: as §1
# [18] = target: Neu5Gc(a2-3)Gal(b1-3)[Fuc(a1-4)]GlcNAc
# In short: as §1
# Neu5Gc(a2-3)Gal(b1-4)Glc = target: Neu5Gc(a2-3)Gal(b1-4)Glc
# In short: as §1
# [19] = target: Neu5Gc(a2-3)Gal(b1-4)GlcNAc
# In short: as §1
# [20] = target: Neu5Gc(a2-3)Gal(b1-4)GlcNAc(b1-3)Gal(b1-4)GlcNAc(b1-2)Man(a1-3)[Neu5Gc(a2-3)Gal(b1-4)GlcNAc(b1-3)Gal(b1-4)GlcNAc(b1-2)Man(a1-6)]Man(b1-4)GlcNAc(b1-4)GlcNAc
# In short: as §1
# [21] = target: Neu5Gc(a2-3)Gal(b1-4)[Fuc(a1-3)]GlcNAc
# In short: as §1
# [22] = target: Neu5Gc(a2-6)Gal(b1-4)GlcNAc
# In short: as §1
# Neu5Gc(a2-6)GalNAc = target: Neu5Gc(a2-6)GalNAc
# In short: as §1
# [23] = target: Neu5Gc(a2-8)Neu5Ac(a2-3)Gal(b1-4)GlcNAc
# In short: as §1
# [24] = target: Neu5Gc(a2-8)Neu5Gc(a2-3)Gal(b1-4)GlcNAc
# In short: as §1
# [25] = target: Neu5Gc(a2-8)Neu5Gc(a2-3)Gal(b1-4)GlcNAc(b1-3)Gal(b1-4)GlcNAc
# In short: as §1
# [26] = target: Neu5Gc(a2-8)Neu5Gc(a2-6)Gal(b1-4)GlcNAc
# In short: as §1
# [27] = target: Neu5Gc(b2-6)Gal(b1-4)GlcNAc
# In short: as §1
binder,measurement,setting,value
PX9961C-bth-497-22-497 (Bacteroides thetaiotaomicron) (protein) DWLDLNTTSSVETGQAIVTLDDAQIALNGIYRLASGHSYYGDNYWYYGDCRAADVQARITKGDGKRVSPYYEYNVLASDNLNIVLPWNTVYKVIRQTNNLIQKIESGSIQSSDTKELNRIKSEALVMRGLSLFNLTRLFGMPYTNDKGASLGVPIETSPSDPTHKPSRSTVAQCYEQVVSDMSNALSGLRQETSNGYINYWAAQALLSRVYLNMGEYQKAYDAATDVIKNNGGRYQLYSYEEYPNVWGQDFQSESLFELYITLSEPSGGTGGEGAPMVYANEATVDWNNLILSEDFLNLLNEDPKDVRHCLTKESVIENNTGLPAAAMHEKVYLAKFPGKTGDDPKTNNICIIRLSEVYLNAAEAGLKKGTDIEEAQGYLNDIISRRTTDTSQQVSTETFTLDRILKERRKELVGEGEVFYDYLRNGLAIERKGSWHLETLKASNAQKIEATDLRIALPIPQSEIDANPNIQQNPR,glycan array binding signal (z-score),Neu5Ac(a2-8)Neu5Ac,-0.167
same,glycan array binding signal (z-score),[1],-0.039
same,glycan array binding signal (z-score),[2],-0.295
same,glycan array binding signal (z-score),[3],-0.311
same,glycan array binding signal (z-score),[4],-0.198
same,glycan array binding signal (z-score),[5],-0.253
same,glycan array binding signal (z-score),[6],-0.361
same,glycan array binding signal (z-score),[7],-0.178
same,glycan array binding signal (z-score),[8],0.663
same,glycan array binding signal (z-score),[9],-0.241
same,glycan array binding signal (z-score),[10],-0.316
same,glycan array binding signal (z-score),[11],0.258
same,glycan array binding signal (z-score),[12],13.7
same,glycan array binding signal (z-score),[13],0.027
same,glycan array binding signal (z-score),Neu5Ac(b2-6)GalNAc,-0.424
same,glycan array binding signal (z-score),[14],-1.08
same,glycan array binding signal (z-score),[15],-0.26
same,glycan array binding signal (z-score),[16],0.211
same,glycan array binding signal (z-score),[17],-0.496
same,glycan array binding signal (z-score),[18],-0.425
same,glycan array binding signal (z-score),Neu5Gc(a2-3)Gal(b1-4)Glc,-0.693
same,glycan array binding signal (z-score),[19],-0.62
same,glycan array binding signal (z-score),[20],0.193
same,glycan array binding signal (z-score),[21],-0.294
same,glycan array binding signal (z-score),[22],-0.448
same,glycan array binding signal (z-score),Neu5Gc(a2-6)GalNAc,-0.538
same,glycan array binding signal (z-score),[23],0.361
same,glycan array binding signal (z-score),[24],-0.354
same,glycan array binding signal (z-score),[25],0.531
same,glycan array binding signal (z-score),[26],0.262
same,glycan array binding signal (z-score),[27],-0.207

# — the supplement of paper PMC8728848
